{"source": "the supplement of paper PMC10126150", "note": "Sequences with one replicate were seen in a single cluster, so their values are uncertain.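 Further: ATP exposure 15 min at 22 °C before imaging.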", "data": [{"test_system": "ATP", "assay": "switch fluorescence ratio, 500 uM ATP over buffer (Cy3 cluster intensity, sum of 5 cycles each) (fold (ratio)); higher = stronger signal-on switching upon ATP binding; sequences stand for … in TCGTCGGCAGCGTCAGATGTGTATAAGAGACAGTTTTTTTTTTTTTTTTTTTTTTTTT…TC", "details": "aptamer strand: ATP DNA aptamer (quencher-CACCTGGGGGAGTATTGCGGAGGAAGG + anchor), 100 nM annealed; ATP concentration: 500 uM; one replicate", "outline": "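Values give the fluorescence ratio for each switch-domain sequence, averaged from per-cluster ratios of summed target-cycle to summed buffer-cycle Cy3 intensity. The Cy3-labelled switching-strand clusters sat on a modified Illumina MiSeq flow-cell, were annealed to 100 nM quencher-labelled ATP aptamer, and were imaged in selection buffer, then after 15 min with 500 uM ATP at 22 °C. Five cycles ran with NaOH stripping and re-annealing between them, and clusters outside 100-1000 RFU were excluded.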", "values": [{"sequence": "GCTAGCGCGC", "switch fluorescence ratio": 0.982}, {"sequence": "GCTAGCGGGG", "switch fluorescence ratio": 1.03}, {"sequence": "GCTAGCGTGA", "switch fluorescence ratio": 0.959}, {"sequence": "GCTAGCGTGT", "switch fluorescence ratio": 0.997}, {"sequence": "GCTAGCTTCG", "switch fluorescence ratio": 1.02}, {"sequence": "GCTAGGGGAT", "switch fluorescence ratio": 0.946}, {"sequence": "GCTAGTACAT", "switch fluorescence ratio": 0.97}, {"sequence": "GCTAGTCA", "switch fluorescence ratio": 0.979}, {"sequence": "GCTAGTGATA", "switch fluorescence ratio": 1.03}, {"sequence": "GCTAGTGTTG", "switch fluorescence ratio": 1.02}, {"sequence": "GCTAGTTCTG", "switch fluorescence ratio": 1.04}, {"sequence": "GCTATAATAT", "switch fluorescence ratio": 1.21}, {"sequence": "GCTATAGAGA", "switch fluorescence ratio": 0.972}, {"sequence": "GCTATAGAGT", "switch fluorescence ratio": 0.992}, {"sequence": "GCTATAGTAG", "switch fluorescence ratio": 0.985}, {"sequence": "GCTATATCTC", "switch fluorescence ratio": 1.52}, {"sequence": "GCTATATTTA", "switch fluorescence ratio": 1.04}, {"sequence": "GCTATCTCGA", "switch fluorescence ratio": 1.01}, {"sequence": "GCTATTCTTA", "switch fluorescence ratio": 1.02}, {"sequence": "GCTATTGCAA", "switch fluorescence ratio": 1.04}, {"sequence": "GCTCAAAGGG", "switch fluorescence ratio": 1.03}, {"sequence": "GCTCATAAAT", "switch fluorescence ratio": 0.993}, {"sequence": "GCTCATAGTT", "switch fluorescence ratio": 0.988}, {"sequence": "GCTCATTCCG", "switch fluorescence ratio": 1.06}, {"sequence": "GCTCATTCGA", "switch fluorescence ratio": 1}, {"sequence": "GCTCCAAGGG", "switch fluorescence ratio": 1.06}, {"sequence": "GCTCCCTAAG", "switch fluorescence ratio": 1.49}, {"sequence": "GCTCCGGTCC", "switch fluorescence ratio": 2.66}, {"sequence": "GCTCCTAAGG", "switch fluorescence ratio": 1.11}, {"sequence": "GCTCGACCAG", "switch fluorescence ratio": 1.35}, {"sequence": "GCTCGAGCAG", "switch fluorescence ratio": 0.985}, {"sequence": "GCTCGCAAAT", "switch fluorescence ratio": 1.25}, {"sequence": "GCTCGCTGCT", "switch fluorescence ratio": 0.993}, {"sequence": "GCTCGGCGCG", "switch fluorescence ratio": 0.998}, {"sequence": "GCTCGGCGTG", "switch fluorescence ratio": 1.04}, {"sequence": "GCTCTAGTCT", "switch fluorescence ratio": 0.993}, {"sequence": "GCTCTTATGC", "switch fluorescence ratio": 1}, {"sequence": "GCTCTTCATG", "switch fluorescence ratio": 1.01}, {"sequence": "GCTCTTCGCA", "switch fluorescence ratio": 1.19}, {"sequence": "GCTCTTGCCG", "switch fluorescence ratio": 1.05}, {"sequence": "GCTGAACCGT", "switch fluorescence ratio": 1.01}, {"sequence": "GCTGAAGCTT", "switch fluorescence ratio": 1.04}, {"sequence": "GCTGAATGCA", "switch fluorescence ratio": 0.984}, {"sequence": "GCTGACCCGG", "switch fluorescence ratio": 1.03}, {"sequence": "GCTGAGGCTC", "switch fluorescence ratio": 1.03}, {"sequence": "GCTGCCTGAG", "switch fluorescence ratio": 1.02}, {"sequence": "GCTGCGAAGC", "switch fluorescence ratio": 1.01}, {"sequence": "GCTGCGGCG", "switch fluorescence ratio": 0.979}, {"sequence": "GCTGCGTGCT", "switch fluorescence ratio": 0.978}, {"sequence": "GCTGCTAGGC", "switch fluorescence ratio": 0.976}, {"sequence": "GCTGCTGCGC", "switch fluorescence ratio": 0.986}, {"sequence": "GCTGCTGTAC", "switch fluorescence ratio": 3.17}, {"sequence": "GCTGCTGTCT", "switch fluorescence ratio": 1.02}, {"sequence": "GCTGGCCTTA", "switch fluorescence ratio": 1.02}, {"sequence": "GCTGGCTCTG", "switch fluorescence ratio": 0.981}, {"sequence": "GCTGGGGTGT", "switch fluorescence ratio": 1.05}, {"sequence": "GCTGGGTACG", "switch fluorescence ratio": 1.01}, {"sequence": "GCTGGTATGT", "switch fluorescence ratio": 0.981}, {"sequence": "GCTGTACGT", "switch fluorescence ratio": 1.07}, {"sequence": "GCTGTATAGA", "switch fluorescence ratio": 1.04}, {"sequence": "GCTGTCGA", "switch fluorescence ratio": 1.02}, {"sequence": "GCTGTCGGGG", "switch fluorescence ratio": 0.977}, {"sequence": "GCTGTCTGTC", "switch fluorescence ratio": 0.981}, {"sequence": "GCTGTGACCT", "switch fluorescence ratio": 1.15}, {"sequence": "GCTGTGGACA", "switch fluorescence ratio": 0.988}, {"sequence": "GCTGTGGCAA", "switch fluorescence ratio": 0.974}, {"sequence": "GCTGTGTTTA", "switch fluorescence ratio": 1.02}, {"sequence": "GCTGTTACTA", "switch fluorescence ratio": 0.966}, {"sequence": "GCTGTTATAT", "switch fluorescence ratio": 0.97}, {"sequence": "GCTGTTATCA", "switch fluorescence ratio": 1.04}, {"sequence": "GCTGTTATGC", "switch fluorescence ratio": 0.984}, {"sequence": "GCTGTTGCG", "switch fluorescence ratio": 1.01}, {"sequence": "GCTGTTGTTA", "switch fluorescence ratio": 1.04}, {"sequence": "GCTTAAAACA", "switch fluorescence ratio": 0.971}, {"sequence": "GCTTAAAGTT", "switch fluorescence ratio": 0.979}, {"sequence": "GCTTAAGCAG", "switch fluorescence ratio": 0.99}, {"sequence": "GCTTAATAT", "switch fluorescence ratio": 1.02}, {"sequence": "GCTTACTACT", "switch fluorescence ratio": 1.1}, {"sequence": "GCTTAGGGTC", "switch fluorescence ratio": 1.01}, {"sequence": "GCTTATATGA", "switch fluorescence ratio": 1.01}, {"sequence": "GCTTATCGGC", "switch fluorescence ratio": 0.967}, {"sequence": "GCTTATCTT", "switch fluorescence ratio": 0.982}, {"sequence": "GCTTATGCAA", "switch fluorescence ratio": 1.02}, {"sequence": "GCTTCAGTTT", "switch fluorescence ratio": 0.97}, {"sequence": "GCTTCATGT", "switch fluorescence ratio": 0.996}, {"sequence": "GCTTCCCTTA", "switch fluorescence ratio": 1.06}, {"sequence": "GCTTCGATTA", "switch fluorescence ratio": 1.02}, {"sequence": "GCTTCGGCAC", "switch fluorescence ratio": 1}, {"sequence": "GCTTCGTATT", "switch fluorescence ratio": 0.986}, {"sequence": "GCTTCTATGT", "switch fluorescence ratio": 1}, {"sequence": "GCTTCTCAAT", "switch fluorescence ratio": 1.23}, {"sequence": "GCTTGAGAAT", "switch fluorescence ratio": 1.01}, {"sequence": "GCTTGCCAAT", "switch fluorescence ratio": 1.01}, {"sequence": "GCTTGCTACG", "switch fluorescence ratio": 1.14}, {"sequence": "GCTTGGATAC", "switch fluorescence ratio": 1.12}, {"sequence": "GCTTGGCCTA", "switch fluorescence ratio": 1.02}, {"sequence": "GCTTGGCGCC", "switch fluorescence ratio": 0.998}, {"sequence": "GCTTGGCTGC", "switch fluorescence ratio": 1.05}, {"sequence": "GCTTGTACCT", "switch fluorescence ratio": 1.1}, {"sequence": "GCTTGTCTGA", "switch fluorescence ratio": 0.994}, {"sequence": "GCTTTAAAAC", "switch fluorescence ratio": 1.06}, {"sequence": "GCTTTAATGA", "switch fluorescence ratio": 1.05}, {"sequence": "GCTTTAGCCG", "switch fluorescence ratio": 0.963}, {"sequence": "GCTTTAGTTT", "switch fluorescence ratio": 1.01}, {"sequence": "GCTTTATGAC", "switch fluorescence ratio": 1.04}, {"sequence": "GCTTTATGTG", "switch fluorescence ratio": 0.991}, {"sequence": "GCTTTCGGAG", "switch fluorescence ratio": 1.48}, {"sequence": "GCTTTCTTAT", "switch fluorescence ratio": 1.04}, {"sequence": "GCTTTGGTGC", "switch fluorescence ratio": 0.975}, {"sequence": "GCTTTTATGT", "switch fluorescence ratio": 0.96}, {"sequence": "GCTTTTTCTC", "switch fluorescence ratio": 0.983}, {"sequence": "GGAAAAGGAG", "switch fluorescence ratio": 0.996}, {"sequence": "GGAAAATGGA", "switch fluorescence ratio": 1.05}, {"sequence": "GGAAAATGTT", "switch fluorescence ratio": 1}, {"sequence": "GGAAACAGAT", "switch fluorescence ratio": 1}, {"sequence": "GGAAACCCCA", "switch fluorescence ratio": 1.05}, {"sequence": "GGAAACGAAG", "switch fluorescence ratio": 0.992}, {"sequence": "GGAAAGAGCC", "switch fluorescence ratio": 0.981}, {"sequence": "GGAAATAAAG", "switch fluorescence ratio": 0.986}, {"sequence": "GGAAATTGTT", "switch fluorescence ratio": 0.942}, {"sequence": "GGAACAATGG", "switch fluorescence ratio": 1.03}, {"sequence": "GGAACATCAG", "switch fluorescence ratio": 0.995}, {"sequence": "GGAACCGGTG", "switch fluorescence ratio": 1}, {"sequence": "GGAACCTATC", "switch fluorescence ratio": 1.16}, {"sequence": "GGAACGCCAA", "switch fluorescence ratio": 1.1}, {"sequence": "GGAACGCGGC", "switch fluorescence ratio": 1.01}, {"sequence": "GGAACTAAAG", "switch fluorescence ratio": 0.982}, {"sequence": "GGAACTGTTG", "switch fluorescence ratio": 1.04}, {"sequence": "GGAAGATATA", "switch fluorescence ratio": 0.982}, {"sequence": "GGAAGCAATG", "switch fluorescence ratio": 1.95}, {"sequence": "GGAAGGCAAA", "switch fluorescence ratio": 0.97}, {"sequence": "GGAAGGGTAC", "switch fluorescence ratio": 1.02}, {"sequence": "GGAAGTGAT", "switch fluorescence ratio": 0.998}, {"sequence": "GGAAGTGATA", "switch fluorescence ratio": 1}, {"sequence": "GGAAGTTAGG", "switch fluorescence ratio": 0.982}, {"sequence": "GGAATAATTA", "switch fluorescence ratio": 1.04}, {"sequence": "GGAATAGGTG", "switch fluorescence ratio": 1.15}, {"sequence": "GGAATGAGGC", "switch fluorescence ratio": 1.02}, {"sequence": "GGAATGGGAT", "switch fluorescence ratio": 0.982}, {"sequence": "GGAATGGTT", "switch fluorescence ratio": 1.05}, {"sequence": "GGACACACCA", "switch fluorescence ratio": 1.27}, {"sequence": "GGACACGAGT", "switch fluorescence ratio": 1.02}, {"sequence": "GGACACTTAT", "switch fluorescence ratio": 1.05}, {"sequence": "GGACAGATTT", "switch fluorescence ratio": 0.979}, {"sequence": "GGACAGCTGG", "switch fluorescence ratio": 0.999}, {"sequence": "GGACATATAG", "switch fluorescence ratio": 0.985}, {"sequence": "GGACATTCCT", "switch fluorescence ratio": 1.56}, {"sequence": "GGACCAACTG", "switch fluorescence ratio": 1.1}, {"sequence": "GGACCAAGTT", "switch fluorescence ratio": 1.04}, {"sequence": "GGACCGGGAA", "switch fluorescence ratio": 1.03}, {"sequence": "GGACCGTATT", "switch fluorescence ratio": 1.12}, {"sequence": "GGACCTTGGG", "switch fluorescence ratio": 1.03}, {"sequence": "GGACCTTTTT", "switch fluorescence ratio": 0.996}]}]}
